SMILES strings stand for the structures.

Data set [1] can be described thus: UP0030 phase 1 study: cerebrospinal fluid (CSF) concentration ~2 hours after administration.
Data set [2] can be described thus: UP0077 phase 1b study: safety and tolerability in participants with PD.

Regarding `CCCC[C@H](Cc1c[nH]c2ccccc12)NC(=O)c1cnc(N2CCN(C)CC2)s1` [UCB0599], the “Concentration in the CSF, GeoMean” value in data set [1] (MAD 180 mg/day, day 14) was 1260 pg/mL; in data set [1] (SAD 90 mg, ~2 hours post-dose), 2040 pg/mL; in data set [1] (SAD 450 mg, ~2 hours post-dose) it was 11,800 pg/mL. In addition, the “Serious TEAEs” value in data set [2] (UP0077, UCB0599 360 mg/day group (kidney injury)) was determined as 1 n. Further, the “Treatment‐related patterns for laboratory findings, vital signs, or ECG findings” value in data set [2] (UP0077, incl. QTcF and plasma creatinine) is “no consistent or clinically relevant treatment‐related patterns”.

The values are drawn from paper PMC9804489, “Phase 1/1b Studies of UCB0599, an Oral Inhibitor of α‐Synuclein Misfolding, Including a Randomized Study in Parkinson's Disease” (Movement Disorders, 2022).
